B1: CPEB3 Ribozyme (parent)
chain: UAACAGGGGGCCACAGCAGAAGCGUUCACGUCGCAGCCCCUGUCAGAUUCUGGUGAAUCUGCGAAUUCUGCUGUAUAUCUC

Read counts are not given, so values of variants with three or more changes are uncertain.

In the data set the parent is B1. The experiment in a line: self-cleavage, relative activity (ratio to wild type); higher = more cleavage; in vitro, sequencing. A digest of the protocol:
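For each CPEB3 ribozyme variant, relative activity is its cleaved/total read fraction divided by the unmutated ribozyme's. Barcoded error-prone PCR libraries were transcribed by T7 RNA polymerase (5 hours, 37°C) and held in DNase I for 15 min before an EDTA stop, with cleavage occurring throughout. Template-switching reverse transcription and Illumina sequencing were used to read the RNAs. A 5-read minimum applied, and results are the mean of three batches.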
A28C A35U U66C U80A: the self-cleavage stood at 0.39.
The result for U26C A56G U78C reads 0.22; that for U26C C40U U72A U80A, 0.27.
As for U26C C29G U31A A35G U48C, the figure is 0.26.
U26C G33A U58A U72G U78C: the self-cleavage is 0.08.
The result for U26C C50A U69C reads 0.15; that for U26C A35G U48C U69C U72C, 0.27; that for U26C G55A U67C, 0.17.
As to U26C U74A U80C, the self-cleavage stood at 0.84.
As for U26C A64G U69C, the figure is 0.15.
On to A28G C32U U41G U54C U72C, for which the self-cleavage came to 0.09.
For the variant A28G A64G G73C, the self-cleavage was found to be 0.47.
On to C27A U31C G53A, for which the self-cleavage was 0.11.
The result for U26C U67C U80C reads 0.31; that for A28C U60A U80A, 0.35; that for U26C U54C A57G U74C, 0.22.
With U26C C50U A56G A65U, the self-cleavage amounted to 0.15.
Regarding U26C C27U U58G U72C, the self-cleavage came to 0.16.
For the variant C27G U66C A75U, the self-cleavage is 0.09.
As for C27G C32G A45U A77G, the figure is 0.08; as for U26C A45G A56G A64G, 0.14; as for U26C U66C U67C, 0.26.
The result for U26C A56G U66C reads 0.17; that for U26C C32U U41C A45G A57G U60C, 0.03.
For U26C U31C A45G U48C U49C, the self-cleavage worked out at 0.42.
The result for U26C A64G G70C U72C reads 0.09.
The result for U26G A35G A56G A57G reads 0.31.
As for U26C A56G C68U, the figure is 0.09.
U26G U31C C71A: the self-cleavage was 0.14.
As for U26C G36C U80C, the figure is 0.08; as for A28G A35U U60A U69A, 0.12; as for U26C C40U G53C U60A, 0.18.
The result for U26C C38U U43C reads 0.41; that for U26C A28G A56G C68G G73A U78C, 0.07.
The result for A28G A64G U74C reads 0.83; that for U26G A45G U48C U58C, 0.7; that for C27A A64G U76C, 0.23.
Turning to U26C G30A U49C A56G, the self-cleavage is 0.23.
Turning to A28G C37U U60C U69C A77G, the self-cleavage was 0.16.
As for U26C A35G G36A A56U U60C, the self-cleavage was found to be 0.14.
The result for C27U U54A U76C reads 0.11.
As for A28G A35G U67C U69C, the figure is 0.24; as for U26C U31A A75G, 0.12.
The result for U26C A35U U49C U60C U74C C79A reads 0.09; that for U26C U51C A56G U66C, 0.28; that for U26C A28G U72C C81U, 0.34.
For U26C U51A U54C G61U U67A, the self-cleavage was determined as 0.16.
As for U26C U69G U78C, the figure is 0.23; as for U26C A45G G63A, 0.25; as for U26G A28G U72C, 0.08.
The result for A28G A35G G42U U49A U58C reads 0.05.
The result for U26C U48C U51C reads 0.19; that for U26C U51C C59G A64G U67A, 0.23; that for U26G A45G A56G U80A, 0.04.
Consider U26C U58C U60A, for which the self-cleavage was 0.12.
As for U26A U72C U78A, the figure is 1.03; as for U26C A28G U43C A45G, 0.54.
The result for U26C U51A U54C U67A reads 0.04; that for C27U A57G U72G, 0.22.
As for A28G C29U U74A, the figure is 0.3; as for U26C U41A A47G C68U U74C U78A, 0.17; as for A28G A35C A45G C79U, 0.26.
Take C27A C38A U69A: the self-cleavage is 0.08.
As for U26C A45G U60A, the figure is 0.23.
The result for U26C C79A U80C reads 0.61.
As for A28G A57G U76C, the self-cleavage was 0.36.
As for A28G C34U A64U U66C, the self-cleavage came out at 0.13.
C27U A28G U41C C71A: the self-cleavage was found to be 0.06.
Turning to A28C U41C G52A U72A, the self-cleavage is 0.09.
For the variant U26C G30U U41C U54C A57G U72A, the self-cleavage was 0.14.
As for U26C A57G C68U, the figure is 0.3; as for A28G A45C A47G U51A U66C, 0.08; as for C27A G36U U41A A45U, 0.1.
In the case of U26C C29G A35U A45G C68A, the self-cleavage amounted to 0.19.
The result for U26C U54A A65G U67G reads 0.1; that for A28G C32U A57U U69C, 0.07; that for A28C C34U A56G C59G A64G A65G, 0.06.
As for U26G U31C A64G U72C, the figure is 0.06; as for U26C A28U G70A, 0.07; as for U26C U51C G63A, 0.21.
For the variant U26G U58C U67C U72C, the self-cleavage is 0.05.
Take U26C G61U U74C: the self-cleavage turned out to be 0.33.
The result for A28C A47G A56G U58C U72A U80C reads 1.06.

The values above are taken from the RNAGym collection of RNA variant scans (doi:10.1093/nar/gkz1192).
